The other results are listed elsewhere or left out.
Test system: T1, C. trachomatis L2/434/Bu expressing GFP (CTL2-GFP)
T1 construct: L2/434/Bu GFP intracellular growth in HeLa cells
Design: species or system HeLa; C. trachomatis total inclusion area by high-content imaging, normalised to DMSO
Conditions: total inclusion area; 28.5 h, 10 µM; inhibitor
Procedure, shortened: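 High-content imaging followed the bulk GFP/resorufin measurement: fixed, Hoechst-stained cells were scored for GFP inclusions and host nuclei per well. Total inclusion area and count served as growth proxies, nuclei number as the viability proxy. MIC calculation matched the bulk assay.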

SMILES	% of control remaining
COc1ccc([C@@]23CC[C@@H](NC(=O)Nc4cc(F)c(C#N)cc4F)C[C@@H]2N(C)CC3)cc1OC [CBK073979T]	102.663
C=CCn1c(Cc2csc(NC(=O)c3ccc(Cl)cc3)n2)n[nH]c1=S [CBK295318]	100.976
CCSC(C)CC1C/C(=N/O)c2c(C)noc2C1 (stereo not drawn) [CBK021455]	87.1422
CCOC(=O)Cn1cnc2nc3c(cc2c1=O)CC(C)CC3 (stereo not drawn) [CBK294402]	114.823
Nc1nnc(SCC(=O)Nc2ccc3c(c2)OCCO3)s1 [CBK266331]	82.1313
O=C(NCc1ccco1)[C@@H]1C=CCN1C(=O)Nc1ccccc1Cl [CBK284269]	89.0004
c1ccc(-c2ccc(OCCCCN3CCNCC3)cc2)cc1 [CBK266028G]	94.0548
CCC(NC(=O)Nc1ccccc1C(=O)O)(C(F)(F)F)C(F)(F)F [CBK268000]	102.857
CCOc1ccsc1C(=O)N1CCN(CCc2ccccc2)CC1 [CBK200229]	119.229
Cc1ccc(S(=O)(=O)NCC(=O)Nc2ccc3cc(Br)cnc3n2)cc1 [CBK067429]	67.4962
CC(NC(=O)c1cc(C(F)(F)F)[nH]n1)c1ccccn1 (stereo not drawn) [CBK281712]	99.3356
O=C(Nc1cccc(S(=O)(=O)N2CCOCC2)c1)c1cc2ccccc2oc1=O [CBK268170]	64.5902
CCC(CN1CCCC1)NC(=O)Cc1cc(C)ccc1OC (stereo not drawn) [CBK282759]	118.421
O=C(Cc1ccccc1)N1CCCC1c1n[nH]cc1-c1ccncc1 (stereo not drawn) [CBK283435]	118.437
COC(=O)N1CCc2ccc(N3C[C@H](CNC(C)=O)OC3=O)cc2CC1 [CBK022485]	7.088
COC(=O)CCCN1CCCC12CCc1[nH]c3ccccc3c1C2 (stereo not drawn) [CBK107798T]	86.7261
C[C@@H](Nc1nc(-c2cccc3ncccc23)cnc1N)c1ccccc1 [CBK063755]	60.089
CC(=O)N[C@H](C(=O)N1CC[C@@H]2NC(=O)[C@@H](Cc3ccccc3)NC(=O)C3(C/C=C/C[C@@H]2C1)CCOCC3)[C@@H](C)O [CBK292186]	110.449
CC[C@H]1C[N@@]2CC[C@H]1C[C@@H]2CNS(=O)(=O)c1ccc(NC(C)=O)cc1 [CBK288745]	105.136
CC(C)NC(=O)N(C)C1CCN(c2ncnc3ccccc23)CC1 [CBK306224]	16.0813

SMILES	% of control remaining
COc1ccc(-c2ccnc(N[C@H]3CO[C@H]4[C@@H]3OC[C@@H]4NC(=O)C3CCCCC3)n2)cc1 [CBK289527]	112.543
O=C(O)CCN1C(=O)C(=Cc2ccc(OCc3ccccc3)cc2)c2ccccc2C1=O [CBK297552]	103.471
COc1ccc(CCCN2CCC(C(=O)NC(=O)Nc3cc(OC)c(OC)c(OC)c3)CC2)cc1 [CBK034855]	98.7678
CCC(Sc1nc(=O)cc(-c2ccccc2)[nH]1)C(=O)O (stereo not drawn) [CBK287135]	95.3402
CC(=O)NC[C@H]1CN(c2ccc(-c3nnc(CCC#N)s3)c(F)c2)C(=O)O1 [CBK017926]	0.07508
Cc1ccccc1Nc1nnc(-c2ccc(C(=O)NCCO)cc2)c2ccccc12 [CBK263743]	83.3014
CN1C(=O)C2(CC(=O)N(CCC3CCCCC3)C2=O)c2cc(Cl)ccc21 (stereo not drawn) [CBK075231]	87.8293
O=C(NC1CCc2ccccc21)N1CCN(c2ccccc2)CC1 (stereo not drawn) [CBK155208]	109.4
CC(C)(C)C1=CC2=NC3(CCC3)C3C[C@](O)(CO)[C@@H](O)[C@@H]3N2O1 (stereo partly drawn) [CBK303262]	84.4442
COc1ccc(C(=O)N[C@H]2C[C@@H]3C(=O)N[C@H]4CCN(C(=O)C5CCC5)[C@@H]4C(=O)N3C2)cc1 [CBK289266]	105.894
CC(C(=O)N1C2CCC1CC(O)(c1ccco1)C2)c1ccccc1 (stereo not drawn) [CBK284112]	98.4315
O=C(O)C1(Cc2ccc(-c3cccs3)cc2)CCNC1 (stereo not drawn) [CBK281679]	78.6768
COCc1cn(C2CCN(c3cc(-n4cc(C)cn4)ncn3)CC2)nn1 [CBK307388]	53.8591
NS(=O)(=O)c1ccc(CN2CCCC2=O)cc1 [CBK288420]	114.41
CC(C)(C)NC(=O)N1CCC(Nc2nccc(C(F)(F)F)n2)CC1 [CBK028788]	37.2992
Cc1nn(C)c(C(=O)Nc2sc3c(c2C#N)CCC(C)C3)c1Br (stereo not drawn) [CBK304212]	38.9353
Nc1nc(-c2ccc3c(c2)CCC(=O)N3)cs1 [CBK086133]	99.811
Oc1ccc2nc(N[C@H]3CC4CCC3C4)sc2c1Cl (stereo partly drawn) [CBK024348G]	27.7403
CCc1nc2ccc(C(=O)N3CCN(C(=O)c4ccco4)CC3)cn2c1N(C)Cc1ccncc1 [CBK145635]	103.99

Reference: paper PMC12040169 (PLOS Biology, 2025)
